Article PMC4336329 (PLoS ONE, 2015)
The whole screen tested about 310,000 compounds, of which about 2,200 (0.71%) showed an effect of 50% or more. The effect is printed as a negative number. Some of the results follow.

biological target: human ether-à-go-go-related gene (hERG) potassium channel (human, UniProt Q12809); test: primary screen, population patch clamp on CHO cells stably expressing hERG
Sequence (Q12809 whole entry, looked up): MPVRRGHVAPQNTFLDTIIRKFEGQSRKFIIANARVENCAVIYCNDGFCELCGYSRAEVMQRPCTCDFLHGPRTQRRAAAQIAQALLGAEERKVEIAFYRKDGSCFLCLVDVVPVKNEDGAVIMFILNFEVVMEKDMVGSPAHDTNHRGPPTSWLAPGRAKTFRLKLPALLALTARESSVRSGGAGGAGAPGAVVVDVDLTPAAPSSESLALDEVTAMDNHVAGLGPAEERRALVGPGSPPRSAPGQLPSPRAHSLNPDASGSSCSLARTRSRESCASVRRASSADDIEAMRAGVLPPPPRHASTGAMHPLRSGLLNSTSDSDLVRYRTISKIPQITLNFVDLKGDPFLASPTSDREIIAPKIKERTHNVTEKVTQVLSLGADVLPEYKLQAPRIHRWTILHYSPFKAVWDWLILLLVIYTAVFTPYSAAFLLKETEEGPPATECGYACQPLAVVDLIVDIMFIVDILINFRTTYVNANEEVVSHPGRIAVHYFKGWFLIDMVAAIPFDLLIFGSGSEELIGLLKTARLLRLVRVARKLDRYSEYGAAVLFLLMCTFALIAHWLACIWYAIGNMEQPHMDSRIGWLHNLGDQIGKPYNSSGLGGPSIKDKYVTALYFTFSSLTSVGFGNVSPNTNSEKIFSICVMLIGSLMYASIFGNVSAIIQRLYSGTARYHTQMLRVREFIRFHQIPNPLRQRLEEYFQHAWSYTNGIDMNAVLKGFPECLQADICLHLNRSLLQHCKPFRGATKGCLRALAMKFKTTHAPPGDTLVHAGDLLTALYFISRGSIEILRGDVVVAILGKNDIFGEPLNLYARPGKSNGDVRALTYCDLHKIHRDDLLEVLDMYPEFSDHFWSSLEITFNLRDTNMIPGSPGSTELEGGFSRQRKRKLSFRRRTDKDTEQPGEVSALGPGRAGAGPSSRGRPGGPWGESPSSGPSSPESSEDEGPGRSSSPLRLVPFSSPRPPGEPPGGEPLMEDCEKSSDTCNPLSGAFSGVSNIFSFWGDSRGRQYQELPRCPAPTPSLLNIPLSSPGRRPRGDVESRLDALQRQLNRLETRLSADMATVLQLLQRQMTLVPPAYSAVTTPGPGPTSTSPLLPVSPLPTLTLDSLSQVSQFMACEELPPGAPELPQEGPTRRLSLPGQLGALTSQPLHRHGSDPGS

First: COc1ccc(NC(=O)CSc2nnc3ccc(-c4ccccn4)nn23)c(OC)c1
Second: CCc1ccc(-c2ccc3nnc(SCC(=O)NCC4CCCO4)n3n2)cc1 (centres unmarked)
The “hERG current change (%, negative = inhibition) at 1uM” value of the first is higher: 13.4% for the first, -18.9% for the second.

First: COc1cccc(CNC(=O)CCNC(=O)C2CCN(S(=O)(=O)c3ccccc3)CC2)c1
Second: CN(c1ccccc1)S(=O)(=O)c1ccc(C(=O)OCC(=O)N2CCOCC2)cc1
The “hERG current change (%, negative = inhibition) at 1uM” value of the first is lower: 7.83% for the first, 11.5% for the second.

Compared with O=C1c2ccccc2C(=O)N1OCCOCCOCCBr, CCCCN(CCCC)C(=O)c1ccccc1NC(=O)CN1C(=O)c2ccccc2C1=O is lower in “hERG current change (%, negative = inhibition) at 1uM” value: 5.48% for the first, 0.393% for the second.

First: COc1ccc(OC)c(CN2CCN(CCc3ccccc3)C(CCO)C2)c1 (centres unmarked)
Second: C=CCC1(CC=C)CCCN1C(=O)CC1C(=O)NCCN1Cc1ccccc1OC (centres unmarked)
The “hERG current change (%, negative = inhibition) at 1uM” value of the first is lower: -24.6% for the first, -0.572% for the second.

First: O=C1NCCCc2nc(Oc3ccccc3)sc21
Second: COc1ccc(N/C=C2/Sc3ccccc3NC2=O)cc1
The “hERG current change (%, negative = inhibition) at 1uM” value of the first is lower: 10.2% for the first, 18.5% for the second.

First: CN=C1c2ccccc2CN1c1cccc(C(=O)OC)c1
Second: CC(C)CC(=O)Nc1ccccc1-c1nnn(CC(=O)N2CCc3ccccc3C2)n1
The “hERG current change (%, negative = inhibition) at 1uM” value of the first is lower: -0.628% for the first, 9.6% for the second.

First: Cc1sc2nc(CN(C(=O)NC3CCCCC3)C3CCCCC3)[nH]c(=O)c2c1C
Second: Cc1nc(CCNC(=O)C2CCC(=O)N(CCc3cccc(F)c3)C2)sc1C (centres unmarked)
The “hERG current change (%, negative = inhibition) at 1uM” value of the first is lower: -1.69% for the first, 7.18% for the second.

Going from COc1ccc(-c2csc(Cc3nc(O)cs3)n2)cc1 to Fc1ccc(-c2csc3ncnc(Cl)c23)cc1, the “hERG current change (%, negative = inhibition) at 1uM” value falls from 13.3% to 6.26%.

First: CCOC(=O)C1CCN(Cc2ccc(C(=O)OC)cc2)CC1
Second: CCOC(=O)c1ccc(NC(=O)C2CCN(C(=O)c3ccc(OC)c(OC)c3)CC2)cc1
The “hERG current change (%, negative = inhibition) at 1uM” value of the first is higher: 1.03% for the first, -19% for the second.

First: O=C(O)CC(C(=O)O)N1C(=O)/C(=C/C=C/c2ccco2)SC1=S (centres unmarked)
Second: CCOc1cc2[nH]c(=O)n(CCCC(=O)NCc3ccco3)c(=O)c2cc1OCC
The “hERG current change (%, negative = inhibition) at 1uM” value of the first is higher: 8.65% for the first, 6.78% for the second.

First: Cc1ccc2nc3c(cc2c1)c(NS(=O)(=O)c1ccccc1)nn3CC(C)C
Second: CS/C(=N\S(=O)(=O)c1ccccc1)c1ccccc1
The “hERG current change (%, negative = inhibition) at 1uM” value of the first is lower: -0.817% for the first, 14.6% for the second.

Compared with O=C(O)CSc1nnc(Cc2ccccc2)n1-c1ccccc1, C=CCn1c(Cc2ccccc2)nnc1SCc1nc2ccccc2c(=O)[nH]1 is higher in “hERG current change (%, negative = inhibition) at 1uM” value: 8.05% for the first, 18.5% for the second.

Going from COc1cc(OC)cc(-c2c(C#Cc3ccsc3)c3cc(-c4ccc5cc[nH]c5c4)ccc3n2C)c1 to O=C(N/N=C/c1c[nH]c2ccccc12)c1cc(-c2ccc3ccccc3c2)n[nH]1, the “hERG current change (%, negative = inhibition) at 1uM” value falls from 18.7% to 11.6%.

Compared with O=C(Nc1ccncc1)C1COc2ccccc2O1 (centres unmarked), Cc1[nH]c2ccccc2c1C(c1ccncc1)N1CCCCC1 (centres unmarked) is lower in “hERG current change (%, negative = inhibition) at 1uM” value: 1.88% for the first, -0.231% for the second.

First: C=CCSc1nnc(Cn2c(=O)sc3ccccc32)n1C
Second: CCOCCn1c(N2CCN(c3ccccc3)CC2)nc2c1c(=O)[nH]c(=O)n2C
The “hERG current change (%, negative = inhibition) at 1uM” value of the first is lower: -6.54% for the first, 0.691% for the second.

COC(=O)[C@@]12CCCN1[C@H](c1ccc(-c3ccccc3)cc1)[C@@H]1C(=O)N(C)C(=O)[C@@H]12.O=C(O)C(F)(F)F and O=C(Nc1cc(C(F)(F)F)ccc1Cl)C(Sc1cccc[n+]1[O-])c1ccccc1 (centres unmarked) are the same in “hERG current change (%, negative = inhibition) at 1uM” value: 10.7% for the first, 10.7% for the second.

Going from COc1ccc(/C(O)=C2\C(=O)C(=O)N(c3cc(C)on3)C2c2ccccc2OC)cc1 (centres unmarked) to Cc1ccc(C(=O)Nc2ccc(Nc3ccccc3)cc2)cc1C, the “hERG current change (%, negative = inhibition) at 1uM” value rises from 10.6% to 20.3%.

First: Cl.OCCN(CCO)CC(O)CN(c1ccccc1)c1ccccc1 (centres unmarked)
Second: OC(CNCc1ccccc1F)COc1cccc2ccccc12 (centres unmarked)
The “hERG current change (%, negative = inhibition) at 1uM” value of the first is higher: 8.22% for the first, -0.346% for the second.

First: O=C(NNc1ccccc1Cl)C(O)(c1cccc(C(F)(F)F)c1)c1cccc(C(F)(F)F)c1
Second: O=C1Nc2ccccc2N(O)N1c1cc(-c2cccc(Cl)c2)no1
The “hERG current change (%, negative = inhibition) at 1uM” value of the first is lower: 8.29% for the first, 11.3% for the second.

Going from CC(C)(C)c1o[nH]c(=O)c1CC(N)C(=O)O (centres unmarked) to CCCCc1c(O)nc(SCC(=O)NCCc2ccc(OC)c(OC)c2)[nH]c1=O, the “hERG current change (%, negative = inhibition) at 1uM” value falls from 15.7% to 0.245%.

Compared with COc1cc(NC(=O)c2cc3nc(C)cc(C)n3n2)c(OC)cc1Cl, CCOC(=O)C1=C(O)/C(=C\c2cccs2)N=C1C is higher in “hERG current change (%, negative = inhibition) at 1uM” value: 2.31% for the first, 5.88% for the second.

First: FC(F)(F)c1cc(CCN2C(=S)NC[C@@H]2CC2CCCCC2)cc(C(F)(F)F)c1
Second: COc1ccc(S(=O)(=O)N2CCCCCC2)cc1C(=O)N1CCCC(C(F)(F)F)C1 (centres unmarked)
The “hERG current change (%, negative = inhibition) at 1uM” value of the first is higher: 6.29% for the first, 5.89% for the second.

Going from Fc1cccc(NC(=S)NCCc2ccccc2)c1 to CCOc1cc(CNCCc2ccc(S(N)(=O)=O)cc2)ccc1OCc1ccccc1.Cl, the “hERG current change (%, negative = inhibition) at 1uM” value falls from 6.27% to -26%.

Going from O=C(NCCCN1CCOCC1)c1ccc2c(c1)N(Cc1ccc(F)cc1)CCS2 to Cc1ccc(S(=O)(=O)N2CCCC(C(=O)Nc3ccc(NC(=O)c4ccccn4)cc3)C2)cc1 (centres unmarked), the “hERG current change (%, negative = inhibition) at 1uM” value falls from 14.1% to 9.61%.

Compared with Cl.OC12ONC(c3ccccn3)C1N1CCC2CC1 (centres unmarked), CCOc1ccccc1/C=N/NC(=O)c1nnn(-c2nonc2N)c1CN1CCCC1 is higher in “hERG current change (%, negative = inhibition) at 1uM” value: 12.2% for the first, 23.5% for the second.

Compared with Cc1oc(-c2ccccc2Cl)nc1CN1C(=O)CN=C(c2ccccc2)c2ccccc21, CN(C)c1nc(NC(C)(C)C)nc(SCC(=O)Nc2ccccc2)n1 is lower in “hERG current change (%, negative = inhibition) at 1uM” value: 9.3% for the first, 7.15% for the second.

First: NC(=O)COC(=O)c1ccc2c(c1)S(=O)(=O)N=C1CCCCCN12
Second: NC(=O)c1ccccc1
The “hERG current change (%, negative = inhibition) at 1uM” value of the first is lower: 11% for the first, 16% for the second.

First: COc1ccc2nc(SCCN(C)C)[nH]c2c1.Cl
Second: CCC(=O)N(Cc1cccs1)C1CCOC(C)(C)C1 (centres unmarked)
The “hERG current change (%, negative = inhibition) at 1uM” value of the first is higher: 14.1% for the first, 12.6% for the second.
